± gives the standard deviation of the averaged measurements. Over roughly 4,000 sequences, “arbitrary fluorescence units” has its median near 830; the highest 2% begin near 6,500. The list lacks most of the strong results.
Target: RUNX1 (UniProt Q01196)
Assay: RUNX1 binding intensity (PBM fluorescence), RUNX1 alone (arbitrary fluorescence units); higher = stronger binding
Details: RUNX1 concentration 2 nM; ETS1 concentration 0 nM
Description: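 gcPBM on 36-bp genomic-derived probes (partner site mutated) containing one RUNX1 site and no ETS1 site. Recombinant human RUNX1 (2 nM) was incubated alone or with ETS1 (25 nM) and detected by anti-RUNX1 antibody fluorescence. Values are medians over 4 replicate spots (not normalised). The probes sit in constant array flanks that are not printed.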
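Also: Full-length recombinant human RUNX1 bound to double-stranded DNA microarray spots, detected with an Alexa488-labelled secondary antibody after the anti-RUNX1 primary, read as scanned spot fluorescence.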

Chain of UniProt Q01196 (Q01196 whole entry): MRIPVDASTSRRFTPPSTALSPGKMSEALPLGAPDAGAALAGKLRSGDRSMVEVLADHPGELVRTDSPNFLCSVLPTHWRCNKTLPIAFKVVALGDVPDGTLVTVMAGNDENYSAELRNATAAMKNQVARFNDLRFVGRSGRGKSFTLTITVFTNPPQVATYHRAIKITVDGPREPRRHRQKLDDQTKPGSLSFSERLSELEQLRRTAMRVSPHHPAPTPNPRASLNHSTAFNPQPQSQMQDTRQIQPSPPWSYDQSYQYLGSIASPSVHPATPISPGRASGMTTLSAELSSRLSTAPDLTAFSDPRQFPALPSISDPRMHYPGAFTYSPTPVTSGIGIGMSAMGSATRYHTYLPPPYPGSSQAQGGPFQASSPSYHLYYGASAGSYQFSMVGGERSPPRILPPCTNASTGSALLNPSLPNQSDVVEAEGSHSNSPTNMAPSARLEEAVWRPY

Row | Sequence | RUNX1 binding intensity
1 | CCCATCGCCGCAGCTCAAGTTTGTCTCCTTTTCATC | 1520
2 | ATCTCACTGTGGTTTTACTTTGCATTTGCTGTACTC | 2390
3 | CGTTATTTACGGGGCTGGGTTAACGCAGCGGTTCCA | 748
4 | CTTGCTTAACGCTCCCTGAGGGGTGGTTTGGGTTTT | 866
5 | GAGGAGGAAAGCGCAAGCGCTGCCCGCAGTGGTAGG | 671
6 | AGCTTTGCGGGCTGTATCAGTCTCAGCAGCAAGAAG | 828
7 | CCGCCACCGTAAGCGCCCTCCTAATCCCCGCAGCGC | 1080
8 | TTCTTAGCAGAGCAAGCTGTTTGCGGGGAAAAAGGG | 721
9 | TGCTGCTCACCCCGCAGAAAGGAGATGGGACCGGCG | 806
10 | TTACCTTCATGCTGCCACCAAAGCACCAAACCACCA | 1100
11 | CCGGTTCCCACAGAGCAGGGGGCTTACGGCGGGGTA | 847
12 | GCAGCCCAGCTTGCTGCAGACCAAAACCACAAGCAG | 1300
13 | GCACTCATTGCCTGTCCCCTGTGGTTTAAAGGTTTT | 902
14 | AGGCCTGCGGCGGCAGAAGGAAAGACAAGGAACTAC | 740
15 | AGTTGCATACGCGGTATTGGGCAGGCAATGGCAGGG | 738
16 | GCCCAGCAAGTGGGTACAAAATGAGCCACAAGACCT | 776
17 | TCCTGCTTCGGCCTCCGCTGCAGCCTCTCCCGCAGA | 831
18 | AACTCCTGGCCCGAACGGCACAGACCGCACTCCCGC | 1080
19 | GCCCCTTTTTGCTGGGATGAGCGGTTAGCGGAGGGG | 1100
20 | TACGCTTCTGCGGCCGCCTAACCCGGGAGCGAAACC | 857
21 | CTCGGAGAGGAACTACTAGGGTGGTTTCTCCTGAGG | 661
22 | GACGCAGCATGAGCTGGAGGTGTAGAATGTGGTGCT | 789
23 | ACTTCTCCGCCCGCAGGCCACTCCCGGCCCCTGTAA | 1740
24 | TCCATGAAGGGGCAGGGGCCTGCTTGTGGGTTTAAA | 718
25 | ACAGAGGTGCTACCACAAGGACCGTAAGCAGAGACC | 855

Row | Sequence | RUNX1 binding intensity
26 | TGTGCATGTGGTTTTCGGGTATGTGATTGCCTCTTT | 1410
27 | CCTGCGTCTCCCTCATGAGCTTCTTCGGCCCGCAAC | 1030
28 | GCAGGACTCCAGGGAGCCCGCGCAGCCGCAAAAAGC | 750
29 | AGCACCCCAGGCAACCATCGCCTCAGCCCACATATT | 1200
30 | CCCACCCGTAAATGAGCCAACAGTGGTTTCGCCCCG | 1050
31 | TGCCCTTCTTTCTGCGGGCCTTTCCGATACTTGAGC | 997
32 | GAAGCTGCGGTGAAGTCTGAAGTTGCCTGGGCCGGG | 2270
33 | GTTCTCAGCTTCATGTTCACAGAGAAACCTCAGACA | 791
34 | CCCTACACCCCACAATCCCCCGCGCCGTTCGGGAGG | 1110
35 | CGGGTTGAGAACCACAGCCTTCACATACGGCTTTTT | 931
36 | ATCAAAGAACGGCTATTGCTGTGACACCGCGGGGAC | 701
37 | GCCGTGCGGTTTCCAGGCCCTACTGCCTGCCATATC | 3120 ± 1000
38 | CTGGGCTAGGTGGTCAAGTTTCAGGGGAGGGGAGCT | 766
39 | GCCATGCGCAGGACTCCGCGTTCTCGCGGTAAGTGG | 697
40 | CTGTGTCCGCGGTGCAAGGGGTCCCGGCGAGGCCAA | 679
41 | CCAACAGTACCCTGCCTCCCTTAACCACAAGACTGA | 5490
42 | GAAGAAATGTGGCTATCATCTTGCGTCCTTCACCGA | 726
43 | ACCAGAACAGCAAATGTTAGTGGTTGAGTTAACGGT | 739
44 | GTGGAAAGGCAATGTGTCATCTGTGGTTTGGTTTTA | 1040
45 | CCCAGCCACCTCCCAGAGCAGCTAACCCACAGTCCT | 1060
46 | AGCACCCCAGATCCTGCACCCCACAACCCAGATCCC | 1110
47 | GCCCCGGTGGTTTTGACCTCCCGCGAACGTCCCTTT | 883
48 | ACTCCGCCCCCTCCGCCTGGCGGTTCCACTTCTCGG | 946
49 | GTAAATAAAGAGGAGGTCCCTATGCGGGGGATGGGG | 908
50 | ACAACCTCACCGCGCGGCGCCGCCACCGAAAAAGGA | 934

Row | Sequence | RUNX1 binding intensity
51 | GAGGAGGCTGTGGTCTGTGTACCCAGGGTGTGCTAA | 913
52 | GTTTCCACTTGCTGCTGTGCAGCAGTACCACCAAGA | 909
53 | AGGCAACTCCCACAAACCCCCGTACGCGGAACACTG | 947
54 | ATGGCGGCCGCAGCAGTGGGCAGTTGAGTTTTCGGG | 729
55 | CCGGAGGCCGCAGGCCGCTCAGGCTTGCGCTCCCAC | 813 ± 110
56 | ATCTCAACTAGGACATGTTTTTGTGACCACAAAGGG | 1070
57 | CTGCCAGACCACACAGTTTGCACTCCCGGGGCGGGC | 996
58 | CTATATCACCTCCTTTCTCTGACCGCGCTGACTTCG | 1770
59 | GACACTGCGGTAGCCTCACTATTGCCTGCTTTAGGA | 1200
60 | TGGCGCTGCGGGCCGGGCGGGGGCCGCGGAGGCTGC | 734
61 | ACAGCTCACACAGTAAATACAAACCTCAAAAAGCAA | 970
62 | CCTGTACGGAGGCTACTCTGGTTTCATGTGGTTTCA | 912
63 | AGTGACGTTTGCGGCAGTAAGGCTTACGTCGGAAAA | 777
64 | ACAGAGAAGATTCCTATTGTGGGATTCACCACCACC | 786
65 | CTCATCAGTCAGCCGGCTGGACCGCAGGAGCTCTCC | 900
66 | TGGTGCCAAAAATCCGCTAGCCACAGAAAAACCGAC | 814
67 | GCGCCCGAAAGTAAGGCTGGGGTAGGTTGTGGTTTC | 922
68 | ATACTGCGGCACTGGGTTGGGGTTGCCTGGATGAAC | 768
69 | AAAAAGCCGTATGTGAAGGCTGTGGTTCTCAACCCG | 754
70 | CAGCCGGCACCGCGGACAGCCGCCGCTTCAGGTTTC | 751
71 | TGCAGTTGCCCCCGCACAGCGGAGGTGGGTCGCCTC | 719
72 | TGTCTCATTTGCTGTAGGTAACAGGCACCACAATAG | 847
73 | CAGGCCAAAAAGCCACACCTCAGAGGACGTAGTTCG | 764
74 | GCAGGCGTGCGCTCCCGCTCCAACCCGCGCACTTCG | 883
75 | TTACGACACTCCCGGCGACGCCCCGCAGCCTTCACC | 941

Row | Sequence | RUNX1 binding intensity
76 | AGTCTGGCTCTGACCACAAGGCAGGCAATAGCTCAT | 1870
77 | TTTACTGAGAGGAGGTGGTTCTTGTGGGTGAAGGTC | 872
78 | TTACTGCCTGAACTTGGGACCTTTGTAACCACGTCT | 906
79 | TAAGTGCACGAAACGGCTGTGTGGGTGTCAGTGATT | 712
80 | TAAATGTCTCCTAAAAGCTCTTTCATAAACCACAGT | 884
81 | AGTGGATTAGTGGTTGTTGCCAGAGGAGGTGAGTTG | 770
82 | ACTACCTGCGGGTGGCCACCAGCGGCGGCAGTCGGG | 822
83 | GAAGCCCAACAGCATGCCGAGTAACCACCCACTGAA | 878
84 | GCCGATGAGGAGGTGAGGGCCAACCACACTGCTCAG | 870
85 | CTGAGGCAATTGGCTCCACGATAAAGTGGTTTGGCC | 751
86 | GGAGCCTGGCTGTGGGTGAGTGCTTGCTGAAGGGGT | 641
87 | GCTGACCACATTAAACCAGCGCCCACCTCCTCTCAC | 1810
88 | TTGACCGCAGGAACTCAACCTCCCCTGGAACTCAAC | 2520
89 | AGCACCAGTGTGGTCTCTGCTTACGGTCCTTATGGT | 882
90 | TTTTCCGACGTAAGCCTTACTGCCGCAAACGTCACT | 954
91 | TCTTCCTCCTCGCGGTCGCGGCCGTACGGAGGGTGG | 803
92 | AGAGGCAGCTTACGGAGACTGCTCTGTGGCCAGTTT | 711
93 | GAGGCAGGCGCATGTCAGTGTGGTTAGAGCACAGTG | 812
94 | GTTTGGTGTGGTTGCAGTACACGATGCATAGTGAAG | 870
95 | AACAGTACTTTCGGGGCAAGTGAGCGCCCACAAGGC | 783
96 | GGCTCCCTGCCCAACTACCAAGAAAAAGCCACAAAG | 1020
97 | GCGCAACGAACCGCAGGTACCGTAAGAGCACACTTC | 1020
98 | CTTCAGCCGCCACCTCCCCGCCCCCGCAGCCCGACA | 1120
99 | AGCCCACACGGACCACAGCTCCAGGGAGCCGAGCAA | 881
100 | GGGCATGAACGAAGAGGGCTCCTCCCCACAAGCTCT | 788

Row | Sequence | RUNX1 binding intensity
101 | ATAAACATGAAGCTGAGTATGTGACCACAGACATTC | 825
102 | CTCCGTTAGGAGATACTATGCAACCACGTCCAGCAT | 716
103 | GACCTGACAACATGCTGGCGCAGTGGGTTGGCCCTG | 755
104 | TTCTTCCCCCTTCAGGTCGCTGAGTGGTTGAGGCCG | 912
105 | TCGCAAACCTCAATGTATTTCCATCACAGAAAGAGA | 1240
106 | CTTTCGCCCTGCCGCGTGCGCTTTGACCGCCCACCC | 1040
107 | TTCAGCCTCCCGCCGCAAGCTCCCTTCGGCCGCTCC | 1030
108 | GCCCAGTTCTCGCCTCCGGTCTGCGGCGCGCTCGGG | 844
109 | TTGGGGCCCCACAGAAAGTCAGTGGAACGTGAAATG | 756
110 | TGAAAGCCAGGCAAGTGGCTCCCACAATAAGCCAAG | 689
111 | CCCGGTGCATCGGATCCGACCACACCCTGGGTGGGC | 701
112 | ACTCGCTCCGGCCGCAGCCCCCTCGGAGGCTGCTAG | 822
113 | CATGTGCTTACGGCTTGATCTGTGGTTATTCTGGTT | 1300
114 | CAAACCACCTAACAGTGCACAGACAGCAGCCTGAGC | 766
115 | TGCCGTATGTGGGTTGAGGGCATGCTGCTTCGCCAT | 758
116 | TAAAACCACCTCAGTACAAATGAACGTCCTTTTCAA | 844
117 | AGGCTTACGGCCACGCCCCCTTCCCGCGGTTGCTAG | 757
118 | TAAGGCAACCACCTCCTCTCAAGACCCTTTCCAGCC | 957
119 | TCCCCTACCGCTAGTGGAAGAAGATGGCGCAAGGCG | 755
120 | GGCAGGAGCTTCAGGCTCAGCCCTGCGGCCTGTGCC | 666
121 | CAGGCACACATACGGGAGCGGCCTGCGCCGCAAGGC | 735
122 | TACCTACATGCTGCCACCACCCGAGGGGACCGCAAG | 906
123 | TGCAATCTTAACCGCTGTGCTTCGGTCGCAGTGGGA | 875
124 | TACCCAGAAAGGAGGTGGAACCTGCGGTGAGGCCCC | 833
125 | TATTCAGCAGCAAAGGAGAGAGTCTGTGGTATCTGC | 708

From the supplement of paper PMC10681739
